According to PubChem BioAssay AID904 (National Center for Advancing Translational Sciences (NCATS), 2007):
The whole screen tested about 55,000 compounds, of which about 530 (0.96%) were called active. The shares of active, inactive and inconclusive entries below differ from those in the screen. Calls come from the whole dose curve; as a rule, active = well fitted cell-killing curve with a large enough effect; inconclusive = small, poorly fitted or top-dose-only effect; inactive = no such curve, though single readings can be large or run the other way. Potencies of inconclusive entries are doubtful fits and often do not repeat.

Assay: qHTS Screen for Compounds that Selectively Target Cancer Cells with p53 Mutations: Cytotoxicity of p53 Null Cells at the Nonpermissive Temperature; note: nearly all actives have a fitted effect of over 50% in size
Settings: H1299 p53-null (neo) cells, 39C, ATPlite viability, 24 h; series mostly up to 46.1 µM
Summary of the method: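 Concentration-response (up to 46 uM) was run for 24 h at the nonpermissive 39C on H1299-p53A138V or H1299-neo cells. ATP content was measured with ATPlite luminescence. AC50 values were Hill-modeled after normalizing between DMSO and 100 uM tamoxifen killing.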
Potency is the fitted concentration of half-maximal effect; tags give direction and shape of the fitted curve.

| SMILES | Potency |
| --- | --- |
| CCC(=O)C1=C(c2ccc(C)cc2)N(C(=O)CC)n2c(nnc2C2CCCCC2)S1 | inactive |
| CCOC(=O)c1nc(NCc2ccc(Cl)cc2)c2c(C)noc2n1 | inconclusive: 0.158 µM [cytotoxic, full curve, poor fit] |
| CS(=O)(=O)N1CCc2cc(C(=O)Nc3ccc(C(F)(F)F)cc3)ccc21 | inconclusive: 11.2 µM [cytotoxic, single point] |
| CCOCCn1ccc2c(OCC(=O)Nc3cccc(F)c3)cccc2c1=O | inactive |
| O=C(CSc1ncccc1C(=O)Oc1ccccc1Cl)Nc1ccccc1Cl | inconclusive: 14.1 µM [cytotoxic, single point] |
| CCOc1ccc(S(=O)(=O)Nc2cccc(-c3ccc(N4CCC(C)CC4)nn3)c2)cc1 | inconclusive: 12.6 µM [cytotoxic, partial curve] |
| Cc1c(C(=O)OCc2ccccc2)[nH]c2c1C(=O)CC(c1ccc(Cl)cc1)C2 (stereo not given) | inactive |
| CCOc1ccccc1CNC(=O)Cn1nc(N2CCN(c3ccccc3)CC2)ccc1=O | inactive |
| CC(C)CN(CC(C)C)CC(O)Cn1cc(/C=C/C(=O)c2ccccc2)c2ccccc21 (stereo not given) | inactive |
| COc1ccc(/C=C(\C#N)c2nc3ccccc3c(=O)[nH]2)cc1OC | inactive |
| CCOc1ccc(S(=O)(=O)Nc2ccc3oc4c(c3c2)CC(C)CC4)cc1 (stereo not given) | inconclusive: 35.5 µM [cytotoxic, single point] |
| CCOc1ccc(CN2C(=O)c3ccccc3Sc3ccc(C(=O)NCCCN4CCOCC4)cc32)cc1 | inconclusive: 17.8 µM [cytotoxic, single point] |
| Cc1ccc(NC(=O)CSc2nncn3c2cc2sccc23)cc1F | inconclusive: 31.6 µM [cytotoxic, single point] |
| COc1cccc(-c2ccc3c(N)c(C(=O)c4ccc(F)cc4)sc3n2)c1 | inconclusive: 12.6 µM [cytotoxic, partial curve] |
| CCc1ccccc1N1CC(c2nc3ccccc3n2CCOc2ccc(Cl)c(C)c2)CC1=O (stereo not given) | active: 17.8 µM |
| Fc1ccccc1COc1ccc(/C=N/NC(=S)NCc2ccccc2)cc1 | inconclusive: 22.4 µM [cytotoxic, single point] |
| CCC(=O)N1c2ccccc2C(C)(c2ccccc2)CC1(C)C (stereo not given) | inconclusive: 35.5 µM [cytotoxic, single point] |
| CCC(C)NC(=O)c1ccc2c(c1)nc1n2CCCCC1 (stereo not given) | active: 5.01 µM |
| Cc1ccc(N2CCN(C(=O)c3c(C)oc4ncnc(N5CCCCC5)c34)CC2)c(C)c1 | inconclusive: 31.6 µM [cytotoxic, single point] |
| CC(C)c1ccc(NC(=O)N2CCN(c3ccc(Cl)c(Cl)c3)CC2)cc1 | inconclusive: 22.4 µM [cytotoxic, single point] |
| CCCC1=Nc2cc(C(=O)NC3CCCCC3)ccc2Sc2ccc(C)cc21 | inactive |
| Cc1cc(C)cc(OCC(=O)N2CCC(c3nc4ccccc4o3)CC2)c1 | inconclusive: 0.398 µM [cytotoxic, full curve] |

| SMILES | Potency |
| --- | --- |
| Clc1ccc(-c2cn3cc(Cc4ccccc4)sc3n2)cc1 | active: 15.8 µM |
| COc1cc(C2CC(=O)c3c([nH]c(C(=O)OC4CCCC4)c3C)C2)cc(OC)c1OC (stereo not given) | inconclusive: 15.8 µM [cytotoxic, single point] |
| Cc1cc2[nH]c(=O)c(=O)[nH]c2cc1S(=O)(=O)N1CCN(c2ccccc2F)CC1 | inactive |
| COc1ccc2sc(N(Cc3cccnc3)C(=O)CCc3ccccc3)nc2c1 | inactive |
| CCN(c1ccccc1)S(=O)(=O)c1ccc(NC(=O)c2nc(S(C)(=O)=O)ncc2Cl)cc1 | inconclusive: 31.6 µM [cytotoxic, single point] |
| CCC1(C)CC(=O)c2c(ccc3oc(C(=O)Nc4ccc(C(C)=O)cc4)c(C)c23)O1 (stereo not given) | inconclusive: 0.005 µM [cytotoxic, full curve, poor fit] |
| CCc1ccc(CNCc2c(C(=O)O)n(Cc3ccc(C)cc3)c3cc(C)ccc23)cc1 | inconclusive: 20 µM [cytotoxic, single point] |
| COc1ccc(CNC(=O)c2ccc(NC(=O)N3CCSc4ccccc43)cc2)cc1 | inconclusive: 0.0501 µM [cytotoxic, full curve, poor fit] |
| C/C(CC(=O)Nc1ccc(Cl)cc1)=N\NC(=O)C(=O)NCCO | inactive |
| CCOc1ccc2nc(N3CCCC(C(=O)Nc4cc(Cl)c(OC)cc4OC)C3)sc2c1 (stereo not given) | inconclusive: 12.6 µM [cytotoxic, single point] |
| CCCCNS(=O)(=O)c1ccc(C)c(-c2nnc3c4ccccc4c(C)nn23)c1 | inconclusive: 0.0398 µM [cytotoxic, full curve, poor fit] |
| CCc1ccc(NC(=O)Cn2c(=O)n(-c3ccc(OC)cc3)c(=O)c3ccc(C(=O)NCc4ccc(C)cc4)cc32)cc1 | inconclusive: 10 µM [cytotoxic, partial curve, poor fit] |
| CCCN(CCC)CC(O)Cn1cc(/C=C/C(=O)c2ccc(Br)cc2)c2ccccc21 (stereo not given) | inactive |
| CCCn1c(=O)c2sccc2n2c(CCCC(=O)Nc3ccc(Oc4ccc(Cl)cc4)cc3)nnc12 | inconclusive: 25.1 µM [cytotoxic, single point] |
| CC(C)OC(=O)CC12CN3CN(C1)CC(CC(=O)OC(C)C)(C3)C2=O | inactive |
| COc1ccc(-c2noc(CCC(=O)Nc3ccc(C(F)(F)F)cc3)n2)cc1 | inconclusive: 11.2 µM [cytotoxic, partial curve] |
| Cc1ccc(NC(=O)CSc2nnc3[nH]c(=O)cc(-c4ccccc4)n23)cc1Cl | inconclusive: 0.794 µM [cytotoxic, full curve] |
| COCCCNC(=O)c1cn(CCOC)c(=O)c2c1c1ccccc1n2C | inconclusive: 5.01 µM [cytotoxic, partial curve] |
| COc1cccc(OCc2nc3ccccc3n2Cc2ccccc2C)c1 | inconclusive: 35.5 µM [cytotoxic, single point] |
| Cc1cc(C)c(NS(=O)(=O)c2ccc(-c3cnc(C4CC4)o3)cc2)c(C)c1 | inconclusive: 0.112 µM [cytotoxic, full curve, poor fit] |
| Cc1ccc(NC(=O)C(=O)NCC(c2cccnc2)N2CCOCC2)cc1Cl (stereo not given) | inconclusive: 25.1 µM [cytotoxic, single point] |
| Cc1ccccc1C(=O)NCCc1nnc(SCC(=O)Nc2nc(-c3ccccc3)cs2)n1C | inconclusive: 0.0045 µM [cytotoxic, full curve, poor fit] |

| SMILES | Potency |
| --- | --- |
| Cc1ccc(O)c(NC(=O)c2cc(-c3ccc4c(c3)OCO4)on2)c1 | inconclusive: 3.16 µM [cytotoxic, full curve] |
| Cc1cccc(N2CCN(C(=O)c3ccc(CS(=O)c4cccc(Cl)c4)o3)CC2)c1C (stereo not given) | inconclusive: 0.355 µM [cytotoxic, full curve] |
| CCOc1ccc(CCNC(=O)CSc2n[nH]c(-c3ccccc3)n2)cc1OCC | inconclusive: 0.005 µM [cytotoxic, full curve, poor fit] |
| COc1ccccc1-c1cc(C(F)(F)F)nc(S(=O)(=O)CCCC(=O)Nc2cc(C)ccc2O)n1 | active: 22.4 µM |
| Cc1ccccc1NC(=O)c1c2c(nc3ccccc13)C(=O)N(C1CCCCC1)C2 | inactive |
| CCc1nc2nc(C)cc(Nc3ccc(Br)cc3F)n2n1 | inconclusive: 20 µM [cytotoxic, single point] |
| O=C(Nc1onc2c1CCCC2)c1ccc(Cl)cc1 | inconclusive: 10 µM [cytotoxic, partial curve] |
| COc1cccc(-n2c(=O)c3sc4ccccc4c3n(CC(=O)Nc3ccccc3OC)c2=O)c1 | inconclusive: 12.6 µM [cytotoxic, partial curve, poor fit] |
| CCCC(=O)Nc1nnc(SCc2cc(=O)c3ccc(C)cc3[nH]2)s1 | inactive |
| Cc1c(Cl)cccc1Nc1nc(N)nc(CSc2nc3ccccc3s2)n1 | inconclusive: 11.2 µM [cytotoxic, partial curve] |
| O=C1c2[nH]nc(-c3ccccc3)c2C(c2ccccc2)N1c1cccc(C(F)(F)F)c1 (stereo not given) | inconclusive: 31.6 µM [cytotoxic, single point] |
| CCN(CC)C(=O)Cn1nnc2sc(-c3ccccc3)cc2c1=O | inconclusive: 2.51 µM [cytotoxic, single point] |
| COc1cccc(OCCSc2nc(C)c(Cc3ccccc3)c(=O)[nH]2)c1 | inconclusive: 0.01 µM [cytotoxic, full curve] |
| CC(=O)c1ccc(NC(=O)CCCSc2nc(-c3ccco3)cc(C(F)(F)F)n2)cc1 | inconclusive: 35.5 µM [cytotoxic, single point] |
| Cc1ccc2nc(-c3sc4nc(C)ccc4c3N)[nH]c2c1 | active: 10 µM |
| Cc1ccc(NC(=O)CCSc2nc(-c3ccco3)cc(C(F)(F)F)n2)cc1F | inconclusive: 31.6 µM [cytotoxic, single point] |
| CCOc1ccc(-n2nc(CO)c(C(=O)NCCCc3ccccc3)n2)cc1 | inconclusive: 15.8 µM [cytotoxic, single point] |
| Nc1nonc1-c1nc2ccccc2n1Cc1cccc(Cl)c1 | inconclusive: 17.8 µM [cytotoxic, single point] |
| O=[N+]([O-])c1ccc(N2CCN(S(=O)(=O)c3ccccc3)CC2)cc1N1CCc2ccccc2C1 | inactive |
| CC(=O)c1ccc(NC(=O)c2ccc(-c3ccc(Cl)cc3)o2)cc1 | inconclusive: 31.6 µM [cytotoxic, single point] |
| CCN(CC)CCNC(=O)c1ccc2nc(CCc3ccccc3)oc2c1 | inconclusive: 0.224 µM [cytotoxic, full curve] |
